Results: PubChem BioAssay AID488969 (Vanderbilt High Throughput Screening Facility, 2010)
The full ranking holds about 110,000 compounds; the median of “z-score” is about -0.1, and the highest 2% start at about 2. The list shows a part of the results.

Biological target: Metabotropic glutamate receptor 8 (Rattus norvegicus) (UniProt P70579)
Test: rat mGluR8 modulators via GIRK flux, primary screen, cell-based, thallium flux, HTS (AID 488969)
Settings: HEK293 rat mGluR8, GIRK (G protein-gated inwardly rectifying potassium channel) thallium flux, FluoZin2; at 10 µM; stronger effect = higher value; submaximal glutamate (EC20) added with thallium

Sequence of UniProt P70579 (P70579 whole entry, looked up): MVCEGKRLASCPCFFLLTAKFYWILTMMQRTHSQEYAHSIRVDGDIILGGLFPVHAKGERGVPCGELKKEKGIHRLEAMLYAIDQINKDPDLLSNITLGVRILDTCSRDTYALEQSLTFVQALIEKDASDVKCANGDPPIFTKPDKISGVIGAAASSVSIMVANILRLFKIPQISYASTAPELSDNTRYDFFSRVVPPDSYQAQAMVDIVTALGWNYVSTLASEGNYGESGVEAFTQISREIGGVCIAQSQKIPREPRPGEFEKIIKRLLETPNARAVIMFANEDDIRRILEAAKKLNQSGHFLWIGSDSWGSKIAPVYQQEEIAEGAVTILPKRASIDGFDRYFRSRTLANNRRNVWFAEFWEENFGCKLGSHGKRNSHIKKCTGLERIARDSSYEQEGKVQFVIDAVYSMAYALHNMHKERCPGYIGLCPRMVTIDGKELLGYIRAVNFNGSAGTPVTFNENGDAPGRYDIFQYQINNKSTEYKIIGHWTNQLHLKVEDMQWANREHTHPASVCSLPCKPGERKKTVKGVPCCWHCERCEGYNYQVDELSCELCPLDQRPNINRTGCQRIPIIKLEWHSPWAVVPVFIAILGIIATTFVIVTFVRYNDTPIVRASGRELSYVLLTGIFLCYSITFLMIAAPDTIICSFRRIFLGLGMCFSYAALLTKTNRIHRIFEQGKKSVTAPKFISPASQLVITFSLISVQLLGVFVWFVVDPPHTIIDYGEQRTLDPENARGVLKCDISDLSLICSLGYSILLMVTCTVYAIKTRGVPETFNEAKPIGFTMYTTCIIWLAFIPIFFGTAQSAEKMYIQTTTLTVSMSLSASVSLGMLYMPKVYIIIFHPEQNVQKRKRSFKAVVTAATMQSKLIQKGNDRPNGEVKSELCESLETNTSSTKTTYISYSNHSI

SMILES	z-score
CCNC(=O)c1oc2c(c1C)C(=O)CC(C)(C)C2	-0.278
O=C(Nc1ncnc2sc3c(c12)CCC3)c1ccco1	-0.814
O=c1c2ccccc2nc(/C=C/c2ccccc2)n1CCc1ccccc1	-0.262
CSCCC(NC(N)=O)C(=O)NCC1CCCCC1 (configuration not stated)	-0.0211
O=C(c1ccccc1)N1CCC(c2nc(-c3ccc(S(=O)(=O)NCC4CCCO4)cc3)no2)CC1 (configuration not stated)	-0.347
CCOC(=O)CNC(=O)c1cccs1	1.18
COc1ccc(-c2nnc(NC(=O)CSc3ccc(Cl)cc3)s2)cc1OC	-0.282
Cc1ccc(N(C(=O)NC2CCCCC2)C2=NCCCCC2)cc1	0.548
CCOC(=O)CNC(=O)CSc1nc2sc(C)c(C)c2c(=O)n1C	-0.726
CCCC(c1nnnn1CCc1ccccc1)N1CCC(C(N)=O)CC1 (configuration not stated)	-0.528
O=C(OCc1cn(-c2ccc(Cl)c(Cl)c2)nn1)c1ccccc1Cl	-0.78
COc1ccccc1CNS(=O)(=O)c1c(C)[nH]c(=O)[nH]c1=O	0.0871
COCCNC(=O)Nc1ccc2nc(C)sc2c1	-0.0702
O=S(=O)(N[C@@H]1C[C@H]2CC[C@@H]1C2)c1cccs1	-0.265
Cc1ccc(C2=NN(Cc3nnc(-c4ccccc4)o3)C(=O)SC2)cc1	-0.258
Oc1ccc(-c2nc3cnccn3c2Nc2ccc3c(c2)OCCO3)cc1	-0.974
CC(Oc1ccc(Cl)cc1Cl)C(=O)Nc1ccc2oc(-c3ccncc3)nc2c1 (configuration not stated)	-0.432
Cc1cccc(-n2ncc3c(NCc4ccc5c(c4)OCO5)ncnc32)c1	-0.121
CC(Sc1nc2ccccc2s1)C(=O)Nc1nnc(C(C)C)s1 (configuration not stated)	0.166
O=C(Nc1ccon1)c1sc2cc(F)ccc2c1Cl	0.27
Cc1cccc(N2C(=O)C(Cl)=C(Nc3c(C)n(C)n(-c4ccccc4)c3=O)C2=O)c1C	-0.132
O=C(O)c1ccccc1C(=O)OCc1ccccc1	-0.111
Cc1cccc(N2CCN(C(=O)c3ccc4ncsc4c3)CC2)c1C	-0.0701

SMILES	z-score
Cc1cc(OCC(=O)O/N=C(\N)Cc2cccs2)ccc1Br	-0.29
NC(=S)N/N=C/c1ccccc1	0.103
CCCCn1c(SCC(=O)NCCOC)nc2ccc(N3CCOCC3)cc2c1=O	1.19
CCOC(=O)N1CCN(C(=O)c2ccc3c(=O)n(Cc4ccccc4OC)c(=S)[nH]c3c2)CC1	-0.36
CCOc1ccc(N2C(=O)c3cccnc3C2Nc2ccc(Cl)cc2)cc1 (configuration not stated)	-1.34
O=c1c2ccccc2nc(/C=C/c2ccc([N+](=O)[O-])cc2)n1CCCO	-0.134
O=C(NCc1cccnc1)C1CCCN(S(=O)(=O)c2ccccc2)C1 (configuration not stated)	-0.0962
Cc1cccc(CC(Cc2nc3ccccc3[nH]2)c2nc3ccccc3[nH]2)c1 (configuration not stated)	-0.798
CC(C)CN1C(=O)C(=O)N(CC(=O)NCc2ccc3c(c2)OCO3)C1=O	0.435
CC(=O)c1c(N2CCC(C(N)=O)CC2)nc(=S)n(-c2ccccc2)c1C	0.608
Fc1ccc(CNc2nc(-c3ccco3)cc(C(F)(F)F)n2)cc1	0.667
O=C(CSc1c2c(nc3ccc(Cl)cc13)CCCC2)NCc1ccco1	-0.409
COc1ccc(CCNC(=O)CSc2ccc(-c3ccccc3)nn2)cc1OC	-0.204
COc1ccccc1N1CCN(C(=O)c2cc(-c3ccco3)on2)CC1	-0.34
Cc1cc(C(=O)NCC(=O)OC(C(=O)Nc2cc(C(F)(F)F)ccc2Cl)c2ccccc2)ccc1[N+](=O)[O-] (configuration not stated)	-0.197
O=S(=O)(c1ccc(F)cc1)n1ccc(-c2cccc(OCc3c(F)cccc3Cl)c2)n1	-0.0878
Cn1c(SCC(=O)N2CCCc3ccccc32)nc2cccnc21	0.176
CC(=O)NCCc1ccc(S(=O)(=O)NC2OC(=O)c3ccccc32)cc1 (configuration not stated)	-0.106
O=c1c2ccccc2nc(SCc2nc3ccccc3s2)n1Cc1ccco1	-0.0748
CNC(=O)CN(C1CCCCC1)S(=O)(=O)c1ccc(F)cc1	-0.154
O=C(CCn1c(=S)[nH]c2ccccc2c1=O)N1CCOCC1	0.695
O=C(CNc1cccc(C(F)(F)F)c1)N/N=C/C1CCCCC1	0.0428
O=C(CSc1nc2ccccc2c(=O)n1-c1ccccc1F)Nc1ccc2c(c1)CCC2	-0.694

SMILES	z-score
O=C(CN1CCN(c2ccc(Cl)cc2)CC1)Nc1ccc(F)cc1	-0.454
O=C(CN1CCN(c2nc(-c3ccccc3)cs2)CC1)Nc1ccc2c(c1)OCO2	-0.333
O=C(COC(=O)c1ccccn1)NCc1ccccc1	0.0411
CC(C)Cn1c(SCC(=O)N2CCN(S(=O)(=O)c3ccccc3)CC2)nc2ccccc21	-1.15
O=C(OCC(=O)C12CC3CC(CC(C3)C1)C2)c1cccnc1Cl	-0.186
Cc1nnc(Sc2nc3c(c(=O)n(C)c(=O)n3C)n2Cc2ccccc2Cl)s1	0.33
COc1ccccc1/C=N/NC(=O)C(C)Cn1cnc2ccccc21 (configuration not stated)	-0.733
Cc1c(C2(c3c(C)n(C)n(-c4ccccc4)c3=O)C(=O)Nc3ccc(F)cc32)c(=O)n(-c2ccccc2)n1C	-0.0683
COc1ccc(CNC(=S)Nc2cc(C)ccc2C)cc1	0.143
COc1ccc(CCNCCC(=O)Nc2c(C)cc(C)cc2C)cc1OC	-0.384
COc1ccc(C)cc1S(=O)(=O)N1CCC(C(=O)N2CCOCC2)CC1	0.353
Cc1ccc(Cc2nnc3n(-c4ccccc4)nc(C(=O)c4ccccc4)n3c2=O)cc1	0.0848
Cc1ncc([N+](=O)[O-])n1CCOC(=O)Nc1ccc([N+](=O)[O-])cc1	0.0381
Cc1ccc(S(=O)(=O)/N=C2\SC(CC(=O)Nc3ccc(F)cc3)C(=O)N2c2ccccc2)cc1 (configuration not stated)	-0.0863
CCCCCCC(=O)Nc1nc(C)c(-c2csc(Nc3cc(Cl)ccc3OC)n2)s1	-0.23
Cc1nc(NC(=O)c2cc3c(C)nn(-c4ccccc4)c3s2)sc1C(=O)Nc1ccccc1	-0.0609
Cc1[nH]nc2c1C1(C(=O)Nc3ccc([N+](=O)[O-])cc31)C(C#N)=C(N)O2 (configuration not stated)	-0.327
O=C(CCn1nc(-c2ccc(Cl)cc2)ccc1=O)N1CCN(c2ccccn2)CC1	0.0631
CC(OC(=O)C1CCN(S(=O)(=O)c2ccc(Cl)cc2)CC1)C(=O)N1CCc2ccccc21 (configuration not stated)	-0.126
CC(C)(C)Nc1nc(OCC(F)(F)F)nc(OCC(F)(F)F)n1	-0.268
CC(C)CCn1c(=O)c2ccccc2n2c(CN(C)Cc3ccccc3)nnc12	0.222
